Measurements as given in the RNAGym collection of RNA variant scans (doi:10.1073/pnas.2313332121).
Variants at the floor of the assay are shown more often than the library holds them.

B1: TPR 5TU (parent)
chain: GGAUCUUCUCGAUCUAACAAAAAAGACAAAUCUGCCACAAAGCUUGAGAGCAUCUUCGGAUGCAGAGGCGGCAGCCUUCGGUGGCGCGAUAGCGCCAACGUUCUCAACUAUGACACGCAAAACGCGUGCUCCGUUGAAUGGAGUUUAUCAUG

Variants of: B1
Experiment: polymerase ribozyme fitness, log enrichment relative to wild type (log ratio); higher = more active; in vitro selection for triplet polymerase activity
In short: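 The heterodimeric triplet polymerase ribozyme's subunits were each mutagenized into PCR-built libraries and transcribed. Every library was selected once, in triplicate, by annealing with a biotinylated primer, the partner subunit and triplets, incubating frozen at −7 °C, gel-excising extended constructs, capturing on streptavidin beads and running RT-PCR. Input and output libraries were Illumina-sequenced, with genotypes kept only at ≥10 input reads and ≥1 read per output. Fitness, from inverse-variance-weighted replicate averages, is the base-2 logarithm of genotype enrichment over wild-type enrichment.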

First: GGAUCUUCUCGAUCUAACAAAAAAGAGAAAUCUGCCACAAAGCUUGAGAGUAUCUUCGGAUGCAGAGGCGGCAGCCUUCGGUGGCGCGAUAGCGCCAACGUUCUCAACUAUGACACGCAAAACGCGUGCUCCGUUGAAUGGAGUUUAUCAUG [C27G C51U]
Second: GGAUCUUCUCGAUCUAACAAAAAAGAGUAAUCUGCCACAAAGCUUGAGAGCAUCUUCGGAUGCAGAGGCGGCAGCCUUCGGUAGCGCGAUAGCGCCCACGUUCUCAACUAUGACACGCAAUACGCGUGCUCCGUUGAAUGGAGUUUAUGAUG [C27G A28U G83A A97C A121U C149G]
The “polymerase ribozyme fitness (log ratio)” value of the first is higher: -3.97 for the first, no more than -4.2 for the second.

GGAUCUUCUCGAUCUAACAAAAAAGAGAGAUCUGCCACAAAGCUUGAGAGCAUCUUCGGAUGCAGAGGCGGCAGCCUUCGGUGGCGCGAUAGCGUCAACGUUCUCAACUAUGACACGCAAAACGCGUGCUCCGUUGAAUGGAGUUUAUCAUG [C27G A29G C95U] and GGAUCUUCUCGAUCUAACAAAAAAGAAAAAUCUGCCACAAAGCGUGAGAGCAUCGUCGGAUCCCGAGGCGGCAGCCUUCCGUGGCGCGAUAGCGCCAACGUUCUCAACUAUGACAAGCAAAACGCGUGCUCCGUUGUAUGGAGUUUAUCAUG [C27A U44G U55G G62C A64C G80C C116A A137U] cannot be ordered by “polymerase ribozyme fitness (log ratio)” value: no more than -4.2 for the first, no more than -4.2 for the second.

GGAUCUUCUCGAUCUAACAAAAAAGAGGAAUCUGCCACAAAGCUUGAGAGCAUCUUCGGAUGCAGAGGCGGCAGCCUUCGGUGGCGCGUUCGCGCCAACGUUCUCAACUAUGACACGCAAAACGCGUGCUCCGUUGAAUGGAGUUUAUCAUG [C27G A28G A89U A91C] and GGAUCUUCUCGAUCUAACAAAAAAGAGAAAUCUGCCACAAAGCUUGAGAGCGUCUUGGGAUGCAGAGGCGACAGCCUUCGGUGGCGCGAUAUCGCCAACGUUCUCAACUAUGACACGCAAAACGCGUGCUCCGUUGAAUGGAGUUUAUCAUG [C27G A52G C57G G71A G92U] cannot be ordered by “polymerase ribozyme fitness (log ratio)” value: no more than -4.2 for the first, no more than -4.2 for the second.

GGAUCUUCUCGAUCUAACAAAAAAGAGAAAUCUGCCAUGAAGCUUGAGAGCAUCUUCGGAUGCAGAGGCGGCCGCCUUCGGUGGCGCGAUAGCUCCAACGUUCUCAACUAUGACACGCAAAACGCGUGCUCCGUUGAAUGGAGUUCAUCAUU [C27G C38U A39G A73C G94U U146C G152U] and GGAUCUUCUCGAUCUAACAAAAAAGAAAAAUCUGCCACAAAGCUUGAGAGCAUCUUCGGAUGCAGAGGCGGCAGCCUUCGGUGGCACGAUAGCACCAACGUGCUCAACUAUGACACGCAAAACGCGUGCUCUUAUGAAUGGAGUUUAUCAUG [C27A G86A G94A U102G C132U G133U U134A] cannot be ordered by “polymerase ribozyme fitness (log ratio)” value: no more than -4.2 for the first, no more than -4.2 for the second.

GGAUCUUCUCGAUCUAACAAAAAAGAGAAAUCUGCCCCAAAGCUUGAGAGCAUCUUCGGAUGCAGAGGCGGCAGCCUUCGGUGGCGCGAUAGAGCCAACGUUCUCAACUAUGACGCGCAAAACGCGUGCUCCGUUGAAUGGAGUUUAUCAUG [C27G A37C C93A A115G] and GGAUCUUCUCGAUCUAACAAAAAAGAGAAAUCUGCCCCAAAGCAAGAGAGCAUCUUUGGAUGCAGAGACGGCAGCCUUCGGUAGCGCGAUAGCGCCAACGUUCUCAACUAUGACACGCUUAACGCGUGCUCCGUUGAAUGGAGUUUGUCAUG [C27G A37C U44A U45A C57U G68A G83A A119U A120U A147G] cannot be ordered by “polymerase ribozyme fitness (log ratio)” value: no more than -4.2 for the first, no more than -4.2 for the second.

GGAUCUUCUCGAUCUAACAAAAAAGAGAAAUGUGCCACAAAGCUUGAGAGCAGCUUCGGAUGCAGAGGCGGCAGCCUUCGGUGGCGCGAUAGCGCCAAUGUUCUCAUCUAUGACACGCAAAACGCGUGCUCCGUUGAAUGGAGUUUAUCAUG [C27G C32G U53G C99U A107U] and GGAUCUUCUCGAUCUAACAAAAAAGAGAAAUCUGCCACAAAGCUUGAGCGCAUCUUCGGAUGCAGAGGCGGCAUCCUUCGUUGGUGCGAAAGCGCCAACGUUGUCAACUAUGACACGCAAAACGGGUGCUCCGGUGAAUGGAGUUUAUCAUG [C27G A49C G74U G81U C85U U90A C103G C125G U134G] cannot be ordered by “polymerase ribozyme fitness (log ratio)” value: no more than -4.2 for the first, no more than -4.2 for the second.

GGAUCUUCUCGAUCUAACAAAAAAGAGAAAUCUGCCGCAAAGCUUGAGAGCAUCUUCGGAUGCCGAGGCGGCAGCCUUCGGUGGCGCGAUAGCGCCAAAGUUCUCAACUAUGACACGCAAAACGCGUGCUCCGUUGAAUGGAGUUUAUCAUG [C27G A37G A64C C99A] and GGAUCUUCUCGAUCUAACAAAAAAGAGAAAUCUGCAAUAAAGCUUGAGGGCAUCUUCGGAUGCAGAGGCGGCAGCCUUUGGUGGCGUGAUAGCGCCAACGUUCUCAACUAUGACACGCAAAACGCGUGCUCCGUUGAAUGGUGUUUAUCAUG [C27G C36A C38U A49G C79U C87U A142U] cannot be ordered by “polymerase ribozyme fitness (log ratio)” value: no more than -4.2 for the first, no more than -4.2 for the second.

GGAUCUUCUCGAUCUAACAAAAAAGAGAAAUCUGCCACAUAGCAUGAGAGCAUCUUCGGAUGCAGAGGCGGCAGCCUUCGGUGGUGUGAUAGCGCCAACGUUCUCAACUAUGACACGCAAAACGCCUGCUCCGUUGAAUGGUGUUUAUCAUU [C27G A40U U44A C85U C87U G126C A142U G152U] and GGAUCUUCUCGAUCUAACAAAAAAGAGGUAUCUGCCACAAUGCUUGAGAGCAUCUUCGGAUGCAGAGGCGGUAGCCUUCGGUGGCACGAUUGCGCCAACGUUCUCAACUAUUACACGCAAAACGCGUGCUCCGUUGAAUGGAGUAUAUCAUG [C27G A28G A29U A41U C72U G86A A91U G112U U145A] cannot be ordered by “polymerase ribozyme fitness (log ratio)” value: no more than -4.2 for the first, no more than -4.2 for the second.

GGAUCUUCUCGAUCUAACAAAAAAGAGAAAUCUGCCACAAAGCUUGAGCUCAUUUUCGGAUGCAGAGGCGGCAGCCUUCGGUGGCGGGAUAGCGCCAACGUUCUCAACUAUGACACGCAAAACGCGUGCUCCGUUGAAUGGAGUUUAUCAUG [C27G A49C G50U C54U C87G] and GGAUCUUCUCGAUCUAACAAAAAAGAGAAAUCUGCCACAAGGCUUGAGAGCAUCUUCGGAUGCAGAGGCGGCAGCCUUCGGUGGGGCGAUAGCGCCAACGUUCUCAACUAUGACACGCAAAACGCGUGCUCCGUUGAAUGGAGUUUAUCAUG [C27G A41G C85G] cannot be ordered by “polymerase ribozyme fitness (log ratio)” value: no more than -4.2 for the first, no more than -4.2 for the second.

For GGAUCUUCUCGAUCUAACAAAAAAGAGAAAUCUGCCACAAAGCUUGAGAGCGUCUUCGGAUGCAGAGGCGGCAGCCUUCGGUGGCGCGAUAUCGCCAACGUUCUCAACUAUGACACGCAAAACGCGUGCUCCGUUGAAUGAAGUUUAUCAUG [C27G A52G G92U G141A], the “polymerase ribozyme fitness (log ratio)” value was no more than -4.2.
